The results in this text go back to PubChem BioAssay AID272 (DTP/NCI, 2004).

Records with an inconclusive call do not appear. For part of its entries the source gives two or more results. The list is limited to them. An entry can have further records. The values listed for one entry are repeats in other runs, samples, wells, individuals or studies.

The assay has as its system Lewis lung carcinoma i.m., BDF1 mice, T/C %. Kind of assay: NCI In Vivo Anticancer Drug Screen. Data for tumor model Lewis Lung Carcinoma (intramuscular) in B6D2F1 (BDF1) mice. The procedure:
The antitumor activity of compounds was measured in mice bearing transplantable tumors. Survival or tumor size were measured and the results are expressed as the measurement made in the treated group (T) divided by the measurement made in the vehicle treated control group (C). The tumor model used in this assay is Lewis Lung Carcinoma (intramuscular) in B6D2F1 (BDF1) mice

Where [1] appears, read: endpoint: mean tumor weight, dose: 50.0 mg/kg/injection, schedule: Q01DX011 (ip), vehicle: steriod suspending solution, higher = larger tumour.
Setting [2] is: endpoint: mean tumor weight, dose: 10.0 mg/kg/injection, schedule: Q01DX011 (ip), vehicle: saline, higher = larger tumour.

For `O=C1CN(CCN2CC(=O)NC(=O)C2)CC(=O)N1`, the T/C (endpoint: mean tumor weight, dose: 12.5 mg/kg/injection, schedule: Q01DX011 (ip), vehicle: steriod suspending solution, higher = larger tumour) was 65 % of control and 99 % of control; the T/C under setting [1] was 20 % of control and 77 % of control. `O=NN(CCCl)C(=O)NC1CCCCC1`: the T/C by setting is: (endpoint: mean tumor weight, dose: 5.0 mg/kg/injection, schedule: Q01DX009 (ip), vehicle: saline, higher = larger tumour) 40 % of control and 509 % of control; (endpoint: mean tumor weight, dose: 8.4 mg/kg/injection, schedule: Q01DX009 (ip), vehicle: saline, higher = larger tumour) 10 % of control and 80 % of control. As for `CN(N=O)C(=O)N[C@@H](C=O)[C@@H](O)[C@H](O)[C@H](O)CO`, the T/C (endpoint: mean tumor weight, dose: 50.0 mg/kg/injection, schedule: Q01DX011 (ip), vehicle: saline, higher = larger tumour) was 64 % of control and 98 % of control. In the case of `CC1CCC(NC(=O)N(CCCl)N=O)CC1` (centres undefined), the T/C (endpoint: median survival time, dose: 8.0 mg/kg/injection, schedule: Q01DX011 (ip), vehicle: saline with Tween-80, higher = longer survival) was 117 % of control and 175 % of control. `CSc1ncnc2nc[nH]c12`: the T/C (endpoint: mean tumor weight, dose: 50.0 mg/kg/injection, schedule: Q01DX011 (ip), vehicle: other, higher = larger tumour) is 46 % of control and 76 % of control. Take `CN(Cc1cnc2nc(N)nc(N)c2n1)c1ccc(C(=O)N[C@@H](CCC(=O)O)C(=O)O)cc1`: the T/C by setting is: (endpoint: mean tumor weight, dose: 0.62 mg/kg/injection, schedule: Q01DX011 (ip), vehicle: other, higher = larger tumour) 52 % of control and 102 % of control; (endpoint: mean tumor weight, dose: 1.25 mg/kg/injection, schedule: Q01DX011 (ip), vehicle: other, higher = larger tumour) 75 % of control and 103 % of control.

For `O=c1[nH]c(=O)n(C2CC(O)C(CO)O2)cc1F` (centres undefined), under setting [2], the T/C was 41 % of control and 78 % of control. As to `CC(CN1CC(=O)NC(=O)C1)N1CC(=O)NC(=O)C1` (centres undefined), the T/C is, setting by setting: (endpoint: mean tumor weight, dose: 25.0 mg/kg/injection, schedule: Q01DX011 (ip), vehicle: steriod suspending solution, higher = larger tumour) 38 % of control and 78 % of control; under setting [1], 28 % of control and 58 % of control. For the molecule `S=c1nc[nH]c2nc[nH]c12`, the T/C (endpoint: mean tumor weight, dose: 39.0 mg/kg/injection, schedule: Q01DX011 (ip), vehicle: other, higher = larger tumour) is 50 % of control and 113 % of control. In the case of `O=P1(NCCCl)OCCCN1CCCl` (centres undefined), the T/C (endpoint: median survival time, dose: 65.0 mg/kg/injection, schedule: Q01DX011 (ip), vehicle: water, higher = longer survival) is 100 % of control and 200 % of control. As to `CO[C@@]12[C@H](COC(N)=O)C3=C(C(=O)C(C)=C(N)C3=O)N1C[C@@H]1N[C@@H]12`, for the setting “endpoint: median survival time, dose: 0.5 mg/kg/injection, schedule: Q01DX011 (ip), vehicle: water, higher = longer survival”, the T/C was 115 % of control and 160 % of control. For the molecule `O=NN(CCCl)C(=O)NCCCl`, the T/C is 108 % of control and 191 % of control (endpoint: median survival time, dose: 14.0 mg/kg/injection, schedule: Q16DX002 (ip), vehicle: saline, higher = longer survival); 121 % of control and 180 % of control (endpoint: median survival time, dose: 23.0 mg/kg/injection, schedule: Q16DX002 (ip), vehicle: saline, higher = longer survival).

For `N[C@@H](Cc1ccc(N(CCCl)CCCl)cc1)C(=O)O`, the T/C (endpoint: mean tumor weight, dose: 1.5 mg/kg/injection, schedule: Q01DX011 (ip), vehicle: saline, higher = larger tumour) is 70 % of control and 113 % of control. On to `Cc1c(N)nc([C@H](CC(N)=O)NC[C@H](N)C(N)=O)nc1C(=O)N[C@H](C(=O)N[C@H](C)[C@@H](O)[C@H](C)C(=O)N[C@H](C(=O)NCCc1nc(-c2nc(C(=O)NCCC[S+](C)C)cs2)cs1)[C@@H](C)O)C(OC1OC(CO)C(O)C(O)C1OC1OC(CO)C(O)C(OC(N)=O)C1O)c1cnc[nH]1` (some centres undefined), for which the T/C under setting [2] is 3 % of control and 32 % of control.
